Source: PubChem BioAssay AID1508623 (National Center for Advancing Translational Sciences (NCATS), 2021)
The campaign covered roughly 48,000 compounds. About 450 (0.94%) were called active. About 19% were inconclusive and are not listed. Calls follow the shape of the dose curve; as a rule, active = well fitted inhibition curve with a large enough effect; inconclusive = small, poorly fitted or top-dose-only effect; inactive = no such curve, though single readings can be large or run the other way. The list shows a part of the results.

test: Primary qHTS for Identification of Small Molecule Inhibitors of Huntingtin Promoter Activity; details: HEK293 HTT promoter firefly luciferase reporter (activity 0% = vehicle and -100% = no light), 24 h; series mostly up to 57.5 µM; activity change, negative = inhibition: at the top concentration; also: nearly all actives have a fitted effect of over 50% in size
Source text: Assay Provider: Russell L. Margolis M.D.
Department Neurology, Johns Hopkins University School of Medicine, Baltimore, MD
Huntington's Disease (HD) is a neurodegenerative disorder caused by a CAG repeat expansion in exon 1 of huntingtin (HTT). While there are currently no disease-modifying treatments for HD, recent efforts have focused on development of nucleotide-based therapeutics to lower HTT expression. As an alternative to siRNA or oligonucleotide methods, we hypothesized that suppression of HTT expression might be accomplished by small molecules that either (1) directly decrease HTT expression by suppressing HTT promoter activity or (2) indirectly decrease HTT expression by increasing the promoter activity of HTT-AS, the gene antisense to HTT that appears to inhibit expression of HTT.
We developed and employed a high throughput screen for modifiers of HTT and HTT-AS promoter activity using luminescent reporter HEK293 cells; of the 52,041 compounds tested, we identified 898 replicable hits. We used a rigorous stepwise approach to assess compound toxicity and the capacity of the compounds to specifically lower huntingtin protein in 5 different cell lines, including HEK293 cells, HD lymphoblastoid cells, mouse primary neurons, HD iPSCs differentiated into cortical-like neurons, and HD hESCs. We found no compounds which were able to lower huntingtin without lowering cell viability in all assays, though the potential efficacy of a few compounds at non-toxic doses could not be excluded.
SEQUENCE No. (1, 2, 3, etc.); […] (e.g., Cells, Incubation, Reagent, etc.); VALUE and DESCRIPTION.
1; Reagent; 4 uL; 2,500 Hek293 luciferase reporter cells per wells
3; Compound; 23 nL; Control inhibitor / compound library
5; Reagent; 2.5 uL; Firefly Luc reagent; Dual-Glo Luciferase Reporter Assay System (Promega)
6; Time; 10 min; room temperature incubation
7; Detection; Luminescence; FLuc
NOTES (numbers refer to sequence above)
1; High-throughput screening, measuring luminescence from a Hek293 luciferase reporter, was performed in 1,536 well white-walled tissue-culture treated plates. 2,500 cells were plated in 4 µL of Opti-MEM per well using a Multidrop Combi Reagent Dispenser (ThermoFisher).
2; Assay plates were cultured for 24 hours.
3; Control inhibitor (PTC124; final concentration of 50 uM) and compound library (at final concentrations of 460 nM - 57.5 uM) were added to the assay plate using the Kalypsis Pintool Robotic System equipped with 1536 pinheads.
4; Cells were then incubated for 24 hours at 37 degrees C prior to luminescence measurements.
5; In all cases, luminescence was measured using the Dual-Glo Luciferase Reporter Assay System (Promega) following the manufacturer's instructions.
6; Room temperature incubation.
7; Luminescence signal was obtained using the PerkinElmer ViewLux plate reader. Results were normalized to vehicle control (0% activity) and zero RLU (-100% activity).

Row | SMILES | activity change, negative = inhibition
1 | CC(=O)Nc1cc(C(=O)Nc2ccc3c(c2)N(C)C(=O)c2ccccc2S3)ccc1C | inactive: -7.1%
2 | Cc1ccc(S(=O)(=O)c2nnn3c2nc(N2CCC(C(N)=O)CC2)c2cc(Cl)ccc23)cc1C | inactive: -9.39%
3 | Cc1nc2c(c(C)nn2C(C)(C)C)c(C)c1CCC(=O)Nc1ccc(Br)cc1Br | inactive: -0.639%
4 | CCC(=O)Nc1cc2nn(-c3ccc(C)cc3)nc2cc1C | inactive: -61.7%
5 | O=C(CCCN1CCC(O)(c2ccc(Br)cc2)CC1)c1ccc(F)cc1 | inactive: 1.48%
6 | Cc1ccc(NC(=O)[C@@H](c2ccccc2)N2Cc3ccccc3C2=O)cc1F | inactive: -29%
7 | CCCc1nn2c(=O)cc(COC(=O)c3ccco3)nc2s1 | inactive: -25.2%
8 | COc1ccc(CCNC(=O)Cn2c(=O)c3cccn3c3ccccc32)cc1OC | inactive: -9.73%
9 | CCCCOc1ccccc1C1CC(=O)Nc2cc(OC)c(OC)cc21 (stereo not drawn) | inactive: -26%
10 | CCOC(=O)Cn1c(=O)n(CC2CCCO2)c2nc(-c3ccc(CC)cc3)nc(C(N)=O)c21 (stereo not drawn) | inactive: -11.4%
11 | O=C(CSc1ncc2c(n1)-c1ccc(Cl)cc1N(Cc1ccccc1)S2(=O)=O)Nc1ccccc1C(F)(F)F | inactive: 16.1%
12 | COC(=O)c1c(NC(=O)/C=C/c2ccc(OC)c(OC)c2)sc2c1CCC2 | inactive: -6.51%
13 | CCN(CC)c1cc2c(cc1F)c(=O)c(S(=O)(=O)c1ccccc1)cn2C | inactive: -15.5%
14 | Cc1cc(C)cc(N(CC(=O)NCc2ccccc2Cl)S(=O)(=O)c2c(C)[nH]c(=O)[nH]c2=O)c1 | inactive: -12%
15 | Cc1noc(Cn2c(=O)c3ccccc3n(CC(=O)Nc3ccc(C(C)C)cc3)c2=O)n1 | inactive: -20.8%
16 | CCN(CC)CCCNC(=O)CN1C(=O)COc2ccc(S(=O)(=O)N3CCC(C)CC3)cc21 | inactive: -12.5%
17 | CC(Nc1oc(-c2ccc(COc3ccc(Cl)cc3)o2)nc1C#N)c1ccccc1 (stereo not drawn) | inactive: -17%
18 | CCN(CC)c1ccc(NC(=O)CN2C(=O)c3cccnc3Oc3ccc(Cl)cc32)c(C)c1 | inactive: 3.71%
19 | O=C(NCc1ccccc1)c1ccc2c(c1)nc1n2CCOC1 | inactive: 22%
20 | COCCNC(=O)CSc1nnc2[nH]c(=O)cc(C)n12 | inactive: -6.73%
21 | C[N+]1(C)CCCC(OC(=O)C(O)(c2ccccc2)c2ccccc2)C1 (stereo not drawn) | inactive: -9%
22 | CCOC(=O)Cn1c(=O)n(CC2CCCO2)c2nc(-c3c(F)cccc3Cl)nc(C(N)=O)c21 (stereo not drawn) | inactive: -16.8%
23 | CCn1c(=O)c2sccc2n2c(CCCC(=O)Nc3ccc(OC)c(OC)c3)nnc12 | inactive: -15.1%
24 | CCOC(=O)c1ccc(NC(=O)c2cc3c([nH]c2=O)CC(c2ccccc2)CC3=O)cc1 (stereo not drawn) | inactive: -0.278%

Row | SMILES | activity change, negative = inhibition
25 | N#C/C(=C1\SCC(c2ccccc2Cl)S1)n1ccnc1 (stereo not drawn) | inactive: -7.02%
26 | COc1ccc(-n2cc(-c3ccc4c(c3)OCO4)n(CC(=O)Nc3cccc(C)c3)c2=O)cc1 | inactive: -13.2%
27 | CCCCC1CCC(CCCC(C)CCC(=O)O)CC1 (stereo not drawn) | inactive: -27.4%
28 | COc1cccc(-c2n[nH]c3c2C(c2ccccn2)N(C)C3=O)c1 (stereo not drawn) | inactive: -0.162%
29 | O=C(CC1N=C2c3ccccc3N=C(SCC(=O)Nc3ccc(F)cc3)N2C1=O)NCc1ccc2c(c1)OCO2 (stereo not drawn) | inactive: 1.98%
30 | Cc1ccccc1Cn1c(SCc2ccc(C(=O)NCCc3ccccc3)cc2)nc2ccncc21 | inactive: -20.2%
31 | Cc1cc(C)n(C(C)CC(=O)Nc2ccc(C)c(F)c2)n1 (stereo not drawn) | inactive: -7.38%
32 | CSc1ncc(Cl)c(C(=O)N(Cc2ccc(C(C)C)cc2)C2CCS(=O)(=O)C2)n1 (stereo not drawn) | inactive: -27.3%
33 | CC(C)CCNc1ncnc2c1cnn2-c1cccc(Cl)c1 | inactive: -17.5%
34 | Cc1ccccc1C(c1c(C)n(C)n(-c2ccccc2)c1=O)c1c(C)n(C)n(-c2ccccc2)c1=O | inactive: -8.95%
35 | Cc1ccc(-n2c(SCC(=O)Nc3c(C)cccc3C)nc(O)c(C)c2=O)cc1 | inactive: -10.2%
36 | CCC1CN(C(=O)N2CCC(C(=O)NCc3ccco3)CC2)c2ccccc2O1 (stereo not drawn) | inactive: 8.05%
37 | COCCNC(=O)C(=O)NCC(c1cccnc1)N1CCN(c2ccccc2)CC1 (stereo not drawn) | inactive: -22.9%
38 | CCOc1ccc2c(c1)c(=O)c(C(=O)c1ccc(C)cc1)cn2Cc1ccccc1OC | inactive: -31.2%
39 | CO[C@@]1(NC(=O)Cc2cccs2)C(=O)N2C(C(=O)O)=C(COC(N)=O)CS[C@@H]21 | inactive: 4.26%
40 | CCOc1ccccc1NC(=O)CN1C(=O)C2(SCC(=O)N2c2ccc(C)cc2)c2ccccc21 (stereo not drawn) | inactive: -25.2%
41 | CC(=O)c1cccc(NC(=O)N2CCC(CN3CCCCC3)CC2)c1 | inactive: -8.1%
42 | CC(C)c1ccc(NC(=O)Cn2c(=O)n(Cc3nc(-c4ccccc4)no3)c(=O)c3cc4c(cc32)OCO4)cc1 | inactive: 9.32%
43 | N#CC(=Cc1ccc(O)c(O)c1)C(=O)NCc1ccccc1 | inactive: 6.44%
44 | Cc1cc(C)c(CN2C(=O)c3ccccc3S(=O)(=O)c3ccc(C(=O)OCC4CCCO4)cc32)c(C)c1 (stereo not drawn) | inactive: -16.7%
45 | Cc1ccc(-n2ncc3c(=O)n(Cc4ccccc4C)cnc32)cc1C | inactive: -10.4%
46 | CCCN(Cc1cccs1)C(=O)Nc1ccc(F)c(Cl)c1 | inactive: -0.27%
47 | COc1cc(Cl)c(NC(=O)C(NS(=O)(=O)c2cccs2)C(C)C)c(OC)c1 (stereo not drawn) | inactive: -13.5%
48 | CS(=O)(=O)N1CCc2cc(C(=O)Nc3ccc(S(N)(=O)=O)cc3)ccc21 | inactive: -14.9%
